To fix the notation:
B1: LINE1-mini (parent)
chain: GGCAGAGCUCAACACAGCGUGGCAAAGUGGCUGUGGCUAGACUGCC

The values below come from the RNAGym collection of RNA variant scans (doi:10.7554/elife.90254).

Read counts are not given, so values of variants with three or more changes are uncertain.

This data set covers variants of B1. The experiment in a line: self-cleavage, relative activity (ratio to wild type); higher = more cleavage; in vitro, sequencing; the parent is a self-cleaving ribozyme.
Take CGCAGAGCUCAACACAGCGUGCGAAAGAGGCAGUGGCUAGACUGCC: the self-cleavage is 0.02.
For CGCAGAGCUCAACACAGCAUGGCAAAGUGGCGGUGGCUAGACUGCC the value was 0.02; for CGCAGAGCUCAACACACCGUGGCAAAGUGGCUGUGGCUAGAGUGCU, 0.01.
For CGCAGAGCUCAACACAGCGUGGCAAAGGGGCUGUGCCUAGACUGCU the value was 0; for CGCAGAGCGCACCACAGCGUGGCAAAGUGACUGUGGCUAGACUGCC, 0.
In the case of CGCAGAGCUCAACACAGCGUGGCAAAGUGGCUAUGGCUAGACUCCC, the self-cleavage amounted to 0.03.
In the case of CGCAGAGCUCAACACAUCGUGGCAAAGUGGCUGAGGCUAGACUGCC it was 0.02; in that of CGCAGAGCUCAACACAGCGUCGCUUCGUGGCUGUGGCUAGACUGCC, 0.12.
For CGCAGAGCUCAACACAGCGUGGCAAACUGGAUGUAGCUAGACUGCC, the self-cleavage was 0.05.
For CGCAGAGCUCAACACAGCGAGGCAAACUGGCUGUGGCUAGACUGCC the value was 0.09; for CGCAGAGCUCAACACAGCGUUGCAAACUGGCAGUGGCGGGACUGCC, 0.01.
For CGCAGAGCGCAACACAGCGUGGCAACGUGGCUGUGGUUAGACUGCC, the self-cleavage was determined as 0.01.
In the case of CGCAGAUCUCAACACAGCGUCGCAAAGUGGCUGUGGCUAGACUGGC it was 0.01; in that of CGCAGAGCGCAACACAGCGUGGCAAAGUGGCUGAGGCUAGACUGCC, 0.02; in that of CGCAGAGCUCAACACAGCGUGGCAAAGUGGCUGGGGCUAGACCGCC, 0.03.
Turning to CGCAGAGCUCAACACAGCGUGGCAAAGUGGCUGUCGCUAGACUGCA, the self-cleavage was found to be 0.03.
With CGCAGAGCUCAACACAGCGUGGCAAAAUGGCUGUGGCUAGACUGUA, the self-cleavage was 0.12.
In the case of CGCAGAGCUCAACACAGCGUGGCAAAGUGGCCGUGUCUAGACUGCC it was 0.05.
Consider UGCCGAGCUCAACACAGCGUGGCAAAGUGGGUGUGGCUAGACUGCC, for which the self-cleavage was found to be 0.05.
For the variant CGCAGAGCUCAACACAGCGUGGCAAAGUGGCUGUGUGUAGACUGCC, the self-cleavage amounted to 0.03.
In the case of CGCAGAUCUCAAAACAGCGUGGCAAAGUGGGUGUAGCUAGACUGCC it was 0.05.
For CGCAGAGCUCAACACAGCGUGGCAAAGUAGCUCUGGCUAGACUGCC the value was 0.01; for CGCAGAGCGCAACACAGCGUGGCAAAGUGGCUGGGGAUAGACUGCC, 0.02; for CGCAGAGCACAACACAGAGUCGCAAAGUGGCUGUGGCUAGACUGCC, 0.04.
CGCAGAGCUCAACACAACGUGGCAAAAUGGCUGUGGCUAGACUGCC: the self-cleavage amounted to 0.02.
CGCAGAGCUCAACACAGCGUGGCAAAGUGGCUCUGGCUAGACUGAC: the self-cleavage amounted to 0.01.
In the case of UGCCGAGCUCAACACAGCGUGGAAAAGUGGCUGUGGCUAGACUGCC it was 0.04; in that of CGCAGAUCUCAACACAGCGUGGCAAAGUGGCUAGGGCUAGACUGCC, 0.11.
For CGCAGAGCUCAACACAGCUUCGCAAAGUGGCUGAGGCUAGACUGCC the value was 0.01; for CGCAGAGCCCAACCCAGCGUGGCAAAGUGGCUGUUGCUAGACUGCC, 0.02.
For CGCAGAGCUCAACACAGCGUGGCAAAGUGGCUGAGGCUAGACUGCA the value was 0.02; for CGCAGAGCUCAACACAGCGUGUCAAAGUGGCUGUGGCUAGACUGAC, 0.2; for CGCAGAGCUCAACACAGCGUGCCAAAGUGGCCGUGGCUAGACUGCC, 0.
Take CGCAGAGCUCAACACAUCGUCGCAGAGUGGCUGUGGCUAGACUGCC: the self-cleavage worked out at 0.03.
For CGCAGAGCUCAACACAGCGUGGCAAAGUGGCUCUGGCUAGACUGCA, the self-cleavage is 0.01.
As to CGCAGAGCUCAACACAGCGUGGCAAAGUGGCUUUGGCUAGUUUCCC, the self-cleavage stood at 0.01.
With CGCAGAGCUCAACACAGCAGGGCAAAGUGGCUGUGGCUAGGCUGCC, the self-cleavage came out at 0.04.
In the case of CGCAGAGCCCAAAACAGCGUGGCAAAGUGGCUGUGUCUAGACUGCC, the self-cleavage came to 0.02.
With CGCAGAGCGGAACACAGCGUGGCAAAGUGGCUGUGGCUAGACUGCA, the self-cleavage came to 0.
For CGCAGAGCCCAACACAGCGUGUCAAAGUGGCUGGGGCUAGACUGCC the value was 0.01.
For CGCAGAGCUCAACACAGCGUGGCAAAGUGGCUGUCGGUAGACUGCC the value was 0; for CGCAGAGCUCAACACAGCGUGGCAAAGUGGCUGGGGCUAGAGUGGC, 0.01; for CGCAGAGCUCAACACAGCGUGACAAAGUGGCAGUUGCCAGCCUGCC, 0.01.
In the case of CGCAGAGCUCAACACAGCCUGGCAAACUGGCUACGGCUAGACUGCC it was 0.01; in that of CGCAGAGCUCAACACAACGUGGCACAGUGGCUGUGGCUAGACUGCC, 0.01; in that of CGCAGAGCUCAACACAGCGUGGCAAAGUGGCUGUGGCUAUACUGGC, 0.
As to CGCAGAGCUCAACACAGCGUGGCAAAGGGGCUGUGGCUAGUCUGCC, the self-cleavage turned out to be 0.24.
For CGCAGAGCUCAACACAGCUUGGCAGAGUGGCUGUAGCUAGACUGCC the value was 0.01; for UGCCGAGCUAAACAUAGCGUGGCAAAGUGGCUGUAGCUAGACUGCC, 0.01; for CGCAGAGCUCAACACAGCGAGGAAAAGUGGUUGUGGAUAGACUUCC, 0.08.
For CGCAGAGCUCAACACAUCGUGGCAAAAUGGCUGUGGCUAAACAGCC the value was 0.02; for CGCAGAGCUCAACACAGCUUGGCAAAGUGUCUGUGGCUAGACUGGC, 0.
CGCAGAGCUCAACACAGCCUGUCAAAGUGAAUGUGACUAGACUGCC: the self-cleavage amounted to 0.04.
For CGCAGAGCUCAACACAGCCUGGCAAAGUGGUUGUGGCUAGACUGCG the value was 0.23.
For CGCAGAGCUCAACACAGCGAGGCAAAGUGGCUGUGGCUAGGCUGCC the value was 0.03.
In the case of CGCAGAGCUCAACACAUCGUGGCGAAGUGGCUGUGUCUAGACUGCC, the self-cleavage is 0.02.
